# Measured values reported in the supplement of paper PMC8728848.
# This is one part of the list.
# B1: TbCVNHOb (Tuber borchii) (protein)
# chain: MSFYASSEDVRTIEEGGRTWLVGRARRADGSWQDIKLDLDNIIGNRDGHLTWGEQNFTQSASDIRFNFEGGSNVPVLRAKLRNAAGGEQESDLNLGERLTNNNGDLVFN
# Tests used:
# Assay in all cases: glycan array binding signal (z-score within array); higher = stronger binding
# Settings in all cases: glycan notation: IUPAC condensed, linker removed
# [1] = target: Fuc(a1-2)Gal
# In short: (§1)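 The binding signal is a Z-score computed within each array and averaged over linkers. Arrays of the same protein sequence at different concentrations or buffers were also averaged together. Data originate from 3228 arrays in the Consortium for Functional Glycomics database, kept only where the protein sequence was available.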
# [2] = target: Fuc(a1-2)Gal(b1-3)GalNAc
# In short: as §1
# [3] = target: Fuc(a1-2)Gal(b1-3)GalNAc(b1-3)Gal
# In short: as §1
# [4] = target: Fuc(a1-2)Gal(b1-3)GalNAc(b1-3)Gal(a1-4)Gal(b1-4)Glc
# In short: as §1
# [5] = target: Fuc(a1-2)Gal(b1-3)GalNAc(b1-4)[Neu5Ac(a2-3)]Gal(b1-4)Glc
# In short: as §1
# [6] = target: Fuc(a1-2)Gal(b1-3)GlcNAc
# In short: as §1
# [7] = target: Fuc(a1-2)Gal(b1-3)GlcNAc(b1-3)Gal(b1-4)Glc
# In short: as §1
# [8] = target: Fuc(a1-2)Gal(b1-3)[Fuc(a1-4)]GlcNAc
# In short: as §1
# [9] = target: Fuc(a1-2)Gal(b1-4)Glc
# In short: as §1
# [10] = target: Fuc(a1-2)Gal(b1-4)Glc6S
# In short: as §1
# [11] = target: Fuc(a1-2)Gal(b1-4)GlcNAc
# In short: as §1
# [12] = target: Fuc(a1-2)Gal(b1-4)GlcNAc(b1-3)Gal(b1-4)GlcNAc
# In short: as §1
# [13] = target: Fuc(a1-2)Gal(b1-4)GlcNAc(b1-3)Gal(b1-4)GlcNAc(b1-3)Gal(b1-4)GlcNAc
# In short: as §1
# [14] = target: Fuc(a1-2)Gal(b1-4)GlcNAc6S
# In short: as §1
# [15] = target: Fuc(a1-2)Gal(b1-4)[Fuc(a1-3)]GlcNAc
# In short: as §1
# [16] = target: Fuc(a1-2)Gal(b1-4)[Fuc(a1-3)]GlcNAc(b1-3)Gal(b1-4)[Fuc(a1-3)]GlcNAc
# In short: as §1
# [17] = target: Fuc(a1-2)Gal(b1-4)[Fuc(a1-3)]GlcNAc(b1-3)Gal(b1-4)[Fuc(a1-3)]GlcNAc(b1-3)Gal(b1-4)[Fuc(a1-3)]GlcNAc
# In short: as §1
# [18] = target: Fuc(a1-2)Gal6S(b1-4)Glc
# In short: as §1
# [19] = target: Fuc(a1-2)Gal6S(b1-4)Glc6S
# In short: as §1
# [20] = target: Fuc(a1-2)Gal6S(b1-4)GlcNAc
# In short: as §1
# [21] = target: Fuc(a1-2)[Gal(a1-3)]Gal
# In short: as §1
# [22] = target: Fuc(a1-2)[Gal(a1-3)]Gal(b1-3)GlcNAc
# In short: as §1
# [23] = target: Fuc(a1-2)[Gal(a1-3)]Gal(b1-4)Glc
# In short: as §1
# [24] = target: Fuc(a1-2)[Gal(a1-3)]Gal(b1-4)GlcNAc
# In short: as §1
# [25] = target: Fuc(a1-2)[Gal(a1-3)]Gal(b1-4)[Fuc(a1-3)]GlcNAc
# In short: as §1
# [26] = target: Fuc(a1-2)[Gal(a1-4)]Gal(b1-4)GlcNAc
# In short: as §1
# [27] = target: Fuc(a1-2)[GalNAc(a1-3)]Gal
# In short: as §1
# [28] = target: Fuc(a1-2)[GalNAc(a1-3)]Gal(b1-3)GlcNAc
# In short: as §1
# [29] = target: Fuc(a1-2)[GalNAc(a1-3)]Gal(b1-4)Glc
# In short: as §1
# [30] = target: Fuc(a1-2)[GalNAc(a1-3)]Gal(b1-4)GlcNAc
# In short: as §1
# [31] = target: Fuc(a1-2)[GalNAc(a1-3)]Gal(b1-4)[Fuc(a1-3)]GlcNAc
# In short: as §1
# [32] = target: Fuc(a1-2)[GalNAc(a1-4)]Gal(b1-4)GlcNAc
# In short: as §1
# [33] = target: Fuc(a1-2)[GalNAc(b1-3)]Gal
# In short: as §1
# [34] = target: Fuc(a1-3)GlcNAc
# In short: as §1
# [35] = target: Fuc(a1-3)[Gal(b1-4)]Glc6S
# In short: as §1
# [36] = target: Fuc(a1-3)[Gal(b1-4)]GlcNAc
# In short: as §1
# [37] = target: Fuc(a1-3)[Gal(b1-4)]GlcNAc(b1-2)Man(a1-3)[Fuc(a1-3)[Gal(b1-4)]GlcNAc(b1-2)Man(a1-6)]Man(b1-4)GlcNAc(b1-4)GlcNAc
# In short: as §1
# [38] = target: Fuc(a1-3)[Gal(b1-4)]GlcNAc(b1-2)Man(a1-6)[Gal(b1-4)GlcNAc(b1-2)Man(a1-3)]Man(b1-4)GlcNAc(b1-4)GlcNAc
# In short: as §1
# [39] = target: Fuc(a1-3)[Gal(b1-4)]GlcNAc(b1-3)Gal(b1-3)[Fuc(a1-4)]GlcNAc
# In short: as §1
# [40] = target: Fuc(a1-3)[Gal(b1-4)]GlcNAc(b1-4)Gal(b1-4)[Fuc(a1-3)]GlcNAc
# In short: as §1
# [41] = target: Fuc(a1-3)[Gal(b1-4)]GlcNAc(b1-4)Gal(b1-4)[Fuc(a1-3)]GlcNAc(b1-4)Gal(b1-4)[Fuc(a1-3)]GlcNAc
# In short: as §1
# [42] = target: Fuc(a1-3)[Gal(b1-4)]GlcNAc6S
# In short: as §1
# [43] = target: Fuc(a1-3)[Gal3S(b1-4)]Glc6S
# In short: as §1
# [44] = target: Fuc(a1-3)[Gal3S(b1-4)]GlcNAc
# In short: as §1
# [45] = target: Fuc(a1-3)[Gal3S(b1-4)]GlcNAc6S
# In short: as §1
binder,measurement,setting,value
B1,glycan array binding signal (z-score),[1],0.109
same,glycan array binding signal (z-score),[2],-0.096
same,glycan array binding signal (z-score),[3],0.011
same,glycan array binding signal (z-score),[4],0.303
same,glycan array binding signal (z-score),[5],-0.101
same,glycan array binding signal (z-score),[6],0.098
same,glycan array binding signal (z-score),[7],1.56
same,glycan array binding signal (z-score),[8],0.009
same,glycan array binding signal (z-score),[9],-0.13
same,glycan array binding signal (z-score),[10],-0.208
same,glycan array binding signal (z-score),[11],-0.037
same,glycan array binding signal (z-score),[12],-0.059
same,glycan array binding signal (z-score),[13],0.048
same,glycan array binding signal (z-score),[14],0.043
same,glycan array binding signal (z-score),[15],-0.012
same,glycan array binding signal (z-score),[16],-0.184
same,glycan array binding signal (z-score),[17],-0.041
same,glycan array binding signal (z-score),[18],-0.297
same,glycan array binding signal (z-score),[19],-0.146
same,glycan array binding signal (z-score),[20],-0.265
same,glycan array binding signal (z-score),[21],-0.159
same,glycan array binding signal (z-score),[22],-0.095
same,glycan array binding signal (z-score),[23],-0.181
same,glycan array binding signal (z-score),[24],-0.033
same,glycan array binding signal (z-score),[25],-0.032
same,glycan array binding signal (z-score),[26],-0.123
same,glycan array binding signal (z-score),[27],-0.125
same,glycan array binding signal (z-score),[28],0.078
same,glycan array binding signal (z-score),[29],-0.147
same,glycan array binding signal (z-score),[30],-0.168
same,glycan array binding signal (z-score),[31],0.144
same,glycan array binding signal (z-score),[32],-0.096
same,glycan array binding signal (z-score),[33],-0.107
same,glycan array binding signal (z-score),[34],0.012
same,glycan array binding signal (z-score),[35],0.185
same,glycan array binding signal (z-score),[36],-0.074
same,glycan array binding signal (z-score),[37],-0.139
same,glycan array binding signal (z-score),[38],-0.121
same,glycan array binding signal (z-score),[39],-0.147
same,glycan array binding signal (z-score),[40],0.251
same,glycan array binding signal (z-score),[41],-0.154
same,glycan array binding signal (z-score),[42],-0.236
same,glycan array binding signal (z-score),[43],0.111
same,glycan array binding signal (z-score),[44],-0.09
same,glycan array binding signal (z-score),[45],-0.058
